# Test results reported in a collection of fitness landscapes (doi:10.1126/science.1257360).
# This is one part of the list.
# B1: PhoQ; a variant is named by its letters at X, in order, P23837 (parent)
# chain: MKKLLRLFFPLSLRVRFLLATAAVVLVLSLAYGMVALIGYSVSFDKTTFRLLRGESNLFYTLAKWENNKLHVELPENIDKQSPTMTLIYDENGQLLWAQRDVPWLMKMIQPDWLKSNGFHEIEADVNDTSLLLSGDHSIQQQLQEVREDDDDAEMTHSVAVNVYPATSRMPKLTIVVVDTIPVELKSSYMVWSWFIYVLSANLLLVIPLLWVAAWWSLRPIEALAKEVRELEEHNRELLNPATTRELTSLVRNLNRLLKSERERYDKYRTTLTDLTHSLKTPLXXLQXXLRSLRSEKMSVSDAEPVMLEQISRISQQIGYYLHRASMRGGTLLSRELHPVAPLLDNLTSALNKVYQRKGVNISLDISPEISFVGEQNDFVEVMGNVLDNACKYCLEFVEISARQTDEHLYIVVEDDGPGIPLSKREVIFDRGQRVDTLRPGQGVGLAVAREITEQYEGKIVAGESMLGGARMEVIFGRQHSAPKDE
# Variants of: B1
# Experiment: enrichment ratio after two sorts for PhoP signalling (ratio (wild type AVST 3.29)); higher = more functional
# Conditions: with PhoP (E. coli)
row,Variant,enrichment ratio
1,YVFK,≤ 0.25
2,KFAH,≤ 0.25
3,IITH,≤ 0.25
4,ALCN,3.89
5,SGMP,≤ 0.25
6,GLCT,≤ 0.25
7,EPLW,≤ 0.25
8,RWFD,≤ 0.25
9,KSQQ,≤ 0.25
10,GGYY,≤ 0.25
11,AFNI,≤ 0.25
12,RWKG,≤ 0.25
13,DRGE,≤ 0.25
14,KEDF,≤ 0.25
15,PWHK,≤ 0.25
16,AGSC,10.4
17,MMDC,≤ 0.25
18,CPII,≤ 0.25
19,DHCN,≤ 0.25
20,SQRW,≤ 0.25
21,DFAL,≤ 0.25
22,RSVS,≤ 0.25
23,GEIW,≤ 0.25
24,LYKM,≤ 0.25
25,KFQN,≤ 0.25

row,Variant,enrichment ratio
1,PLLV,≤ 0.25
2,FQEY,≤ 0.25
3,MIQG,0.317
4,DIAT,≤ 0.25
5,EHIQ,≤ 0.25
6,NKDV,≤ 0.25
7,KMWF,≤ 0.25
8,DEYD,≤ 0.25
9,GGCD,≤ 0.25
10,AMCY,25.2
11,ALGH,≤ 0.25
12,GGLL,12.7
13,LIHC,≤ 0.25
14,YWGL,≤ 0.25
15,PHPM,≤ 0.25
16,DCSL,≤ 0.25
17,FLAW,≤ 0.25
18,MHPY,≤ 0.25
19,TRSL,2.78
20,ICTN,≤ 0.25
21,LKMP,≤ 0.25
22,KSQD,≤ 0.25
23,TGYC,13.2
24,RNTK,≤ 0.25
25,NTYW,≤ 0.25

row,Variant,enrichment ratio
1,LAVQ,≤ 0.25
2,RQHA,≤ 0.25
3,KILT,≤ 0.25
4,VGRF,≤ 0.25
5,IYYN,≤ 0.25
6,EGNV,≤ 0.25
7,QVVS,≤ 0.25
8,LARS,≤ 0.25
9,GRCL,≤ 0.25
10,IPEY,≤ 0.25
11,SDCW,≤ 0.25
12,RYYR,≤ 0.25
13,ECPY,≤ 0.25
14,DRLK,≤ 0.25
15,MCFW,≤ 0.25
16,HNIQ,≤ 0.25
17,QSVS,≤ 0.25
18,NLKA,≤ 0.25
19,CYHP,≤ 0.25
20,RCSL,≤ 0.25
21,WCRG,≤ 0.25
22,PLDN,≤ 0.25
23,CCTV,≤ 0.25
24,DFHA,≤ 0.25
25,SWIH,≤ 0.25

row,Variant,enrichment ratio
1,GPGM,≤ 0.25
2,TVET,≤ 0.25
3,QDIW,≤ 0.25
4,VSQC,≤ 0.25
5,DCPN,≤ 0.25
6,HLKN,≤ 0.25
7,LVTW,≤ 0.25
8,GNYG,≤ 0.25
9,DQTI,≤ 0.25
10,FIII,≤ 0.25
11,PRHY,≤ 0.25
12,QTWL,21.9
13,GDAR,≤ 0.25
14,QFVY,≤ 0.25
15,TSGC,9.62
16,NGDT,≤ 0.25
17,SMIM,5.32
18,ITTG,≤ 0.25
19,LIEI,≤ 0.25
20,VFKW,≤ 0.25
21,HYPR,≤ 0.25
22,GEGD,≤ 0.25
23,PHDI,≤ 0.25
24,SLHL,0.49
25,YDQS,≤ 0.25

row,Variant,enrichment ratio
1,GKEQ,≤ 0.25
2,IMFP,≤ 0.25
3,ASWK,≤ 0.25
4,VRAN,≤ 0.25
5,KVPW,≤ 0.25
6,EYPW,≤ 0.25
7,PMRH,≤ 0.25
8,IRFW,≤ 0.25
9,IIMD,≤ 0.25
10,YTGY,≤ 0.25
11,RWVT,≤ 0.25
12,YCLM,14.9
13,DKMT,≤ 0.25
14,KVVT,≤ 0.25
15,FWDH,≤ 0.25
16,IPYS,≤ 0.25
17,DIIC,≤ 0.25
18,KMYK,≤ 0.25
19,GIYQ,≤ 0.25
20,SQQE,≤ 0.25
21,IYVS,≤ 0.25
22,AKGQ,≤ 0.25
23,TWTG,≤ 0.25
24,FNWA,≤ 0.25
25,PGGC,≤ 0.25

row,Variant,enrichment ratio
1,YGIK,≤ 0.25
2,AQEL,≤ 0.25
3,DFQP,≤ 0.25
4,GGGL,≤ 0.25
5,PMEF,≤ 0.25
6,ALIH,≤ 0.25
7,NRSA,≤ 0.25
8,KASR,≤ 0.25
9,LKMF,≤ 0.25
10,RMQS,≤ 0.25
11,ETFW,≤ 0.25
12,AACC,≤ 0.25
13,VEPS,≤ 0.25
14,HSGV,≤ 0.25
15,ETLI,≤ 0.25
16,LGTS,≤ 0.25
17,MCIC,≤ 0.25
18,NKFM,≤ 0.25
19,YSKI,≤ 0.25
20,TGPR,≤ 0.25
21,RCLT,≤ 0.25
22,LYLR,≤ 0.25
23,EQVC,≤ 0.25
24,EYSR,≤ 0.25
25,YHPD,≤ 0.25

row,Variant,enrichment ratio
1,NRHS,≤ 0.25
2,IHCS,≤ 0.25
3,HPAW,≤ 0.25
4,MNND,≤ 0.25
5,QFKL,≤ 0.25
6,GKMW,≤ 0.25
7,PTGN,≤ 0.25
8,VDVV,≤ 0.25
9,PTHM,≤ 0.25
10,WDAK,≤ 0.25
11,IFPA,≤ 0.25
12,FSSK,≤ 0.25
13,FRGD,≤ 0.25
14,ILIL,≤ 0.25
15,MPML,≤ 0.25
16,KDEP,≤ 0.25
17,VYEN,≤ 0.25
18,HTNN,≤ 0.25
19,NRMM,≤ 0.25
20,ETPL,≤ 0.25
21,IECT,16.6
22,YPPF,≤ 0.25
23,LANI,≤ 0.25
24,SAPW,≤ 0.25
25,LQFH,≤ 0.25

row,Variant,enrichment ratio
1,PVFK,≤ 0.25
2,INCC,≤ 0.25
3,TPYI,≤ 0.25
4,HYLT,≤ 0.25
5,VLRL,≤ 0.25
6,RILE,≤ 0.25
7,ADIH,≤ 0.25
8,MLWG,≤ 0.25
9,TKAV,8.07
10,LALC,0.604
11,PSSG,≤ 0.25
12,MTAY,4.94
13,RMWD,≤ 0.25
14,YMKN,≤ 0.25
15,AGTY,0.894
16,MMIY,≤ 0.25
17,WVPN,≤ 0.25
18,NTKS,≤ 0.25
19,KPWV,≤ 0.25
20,NTKY,≤ 0.25
